From PubChem BioAssay AID1346428 (National Center for Advancing Translational Sciences (NCATS), 2018)
Screen size: about 48,000 compounds; about 1,200 (2.5%) were called active. Another 2% or so got no clear call; they are omitted.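 Rule for the calls: active = activation of at least 60% and not above a set upper limit (about 1 call in 100 departs from these limits); inconclusive = activation of 40% to 60%, or above that upper limit; inactive = activation under 40%.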 Some of the results follow.

Target: Probable G-protein coupled receptor 32 (Homo sapiens) (UniProt O75388)
Experiment: qHTS for Agonists of Human Resolvin D1 Receptor DRV1; note: 0% is about no effect
Conditions: CHO-K1 GPR32 beta-arrestin PathHunter luminescence, 90 min; at 76.9 µM; stronger effect = higher value; zero percent set by DMSO-only wells
How it was run: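 CHO-K1 cells stably expressing ProLink-tagged GPR32 and Enzyme Activator-tagged beta-arrestin were seeded at 2,500 cells/well overnight, exposed to compounds for 90 min at 37 °C, then read by beta-Gal complementation chemiluminescence after 1 h detection reagent.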

Chain of UniProt O75388 (O75388 whole entry, looked up): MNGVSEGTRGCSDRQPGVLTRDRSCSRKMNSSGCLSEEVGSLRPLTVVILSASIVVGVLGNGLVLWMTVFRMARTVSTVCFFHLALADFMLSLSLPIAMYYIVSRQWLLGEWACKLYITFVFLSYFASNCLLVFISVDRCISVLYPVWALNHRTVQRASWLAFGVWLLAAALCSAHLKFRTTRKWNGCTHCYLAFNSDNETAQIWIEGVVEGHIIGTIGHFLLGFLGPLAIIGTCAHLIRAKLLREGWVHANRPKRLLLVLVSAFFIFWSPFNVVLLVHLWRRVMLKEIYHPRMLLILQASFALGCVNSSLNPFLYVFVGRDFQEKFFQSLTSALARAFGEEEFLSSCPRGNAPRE

Row | SMILES | activation
1 | Cc1cc(C)c2c(N)c(C(=O)Nc3ccccc3C(F)(F)F)sc2n1 | active: 89.4%
2 | COc1cc2c(cc1NC(=O)C(C)Oc1ccccc1)oc1ccccc12 (stereo unspecified) | inactive: -9.54%
3 | COc1ccccc1-n1c(=O)n(C)c2c(C(N)=O)nc(-c3cc(OC)c(OC)c(OC)c3)nc21 | inactive: -2.79%
4 | Cc1ccc(C)c(Cn2c(=O)n(CCCC(=O)NCc3ccc4c(c3)OCO4)c(=O)c3sccc32)c1 | inactive: -22%
5 | COc1ccc(OC)c(NC(=O)COCc2cc(-c3ccc(F)cc3)on2)c1 | inactive: -15.7%
6 | CCC1CN(C(=O)Nc2cc(Cl)ccc2C(=O)OC)c2ccccc2S1 (stereo unspecified) | inactive: -17.7%
7 | Cc1ccc(N2C(=O)N(Cc3cccc(Cl)c3)c3ccccc3S2(=O)=O)cc1 | inactive: -5.99%
8 | CN(C(=O)c1nn(C)c2c1CS(=O)(=O)c1ccccc1-2)c1cccc(Cl)c1 | inactive: -12.6%
9 | CCCSc1ncc(Cl)c(C(=O)N2CCN(c3ccc(OC)cc3)CC2)n1 | inactive: -21.3%
10 | CC(C)Oc1ccc(C(=O)N2CCCCC2CCN2CCCCC2)cc1 (stereo unspecified) | inactive: -7.78%
11 | CCOC(=O)c1ccc(NC(=O)c2c(NCc3cccc(OC)c3OC)sc3c2CCC3)cc1 | inactive: -11.6%
12 | CCC(C)c1ccc(OCC(=O)Nc2ccc(-c3nc4ncccc4o3)cc2)cc1 (stereo unspecified) | inactive: -5.06%
13 | CCOC(=O)c1sc(N2C(=O)c3oc4ccc(F)cc4c(=O)c3C2c2ccc(O)cc2)nc1C (stereo unspecified) | inactive: 4.86%
14 | CCCOc1ccc(CNC(=O)c2cc3ccccn3n2)cc1 | inactive: 14.9%
15 | CCOc1ccccc1NC(=O)CCNS(=O)(=O)c1ccc2c(c1)CCN2C(=O)C1CC1 | inactive: 0.802%
16 | CCCCS(=O)CC(O)CSc1nc(-c2ccc(OC)cc2)cc(-c2ccccc2)c1C#N (stereo unspecified) | inactive: -27.2%
17 | Cc1ccc(/C=C/c2onc(C)c2S(=O)(=O)N2CCC(C(=O)NCc3ccc(N(C)C)cc3)CC2)cc1 | inactive: -12.9%
18 | COc1ccc(NC(=O)CN(c2ccc(C)cc2)S(=O)(=O)c2cccs2)cc1OC | inactive: 0.268%
19 | CCCCN(C)C(=O)Cn1ncc2c([nH]c3ccc(C)cc32)c1=O | inactive: -4.44%
20 | Cn1ncc2c(N3CCN(c4ccccc4Cl)CC3)ncnc21 | inactive: 32.9%
21 | Cc1ccc(OCCCC(=O)Nc2sc3c(c2C(N)=O)CCCC3)cc1 | inactive: 44.5%

Row | SMILES | activation
22 | CCC(Sc1nnc(-c2ccc(OC)cc2)c(-c2ccc(OC)cc2)n1)C(=O)Nc1cccc(OC)c1 (stereo unspecified) | inactive: -18.7%
23 | Fc1ccccc1N1CCN(c2c3c(nc4nncn24)CCC3)CC1 | inactive: -3.24%
24 | Cc1cc(C)cc(NC(=O)c2cccc(N3CCCS3(=O)=O)c2)c1 | inactive: 27.3%
25 | COc1ccccc1NC(=O)c1sc2nc(-c3cc4ccccc4oc3=O)[nH]c(=O)c2c1C | inactive: -4.57%
26 | O=C(CSc1nnc(-c2ccccc2F)o1)N1CCc2ccccc21 | inactive: -0.154%
27 | COc1ccc(C(=O)N/C(=C\c2cn(S(=O)(=O)N(C)C)c3ccccc23)C(=O)NCCCn2ccnc2)cc1 | inactive: 2.1%
28 | Cc1cccc(C(=O)Nc2nnc(SCc3cc(=O)n4cccc(C)c4n3)s2)c1 | inactive: -4%
29 | O=C(Cc1ccc(Cl)cc1)NCC(c1cccs1)S(=O)(=O)c1ccc(Cl)cc1 (stereo unspecified) | inactive: -3.19%
30 | C#Cc1cccc(Nc2ncnc3cc(OCCOC)c(OCCOC)cc23)c1 | inactive: -68.2%
31 | Cc1cccc(NC(=O)c2c(NC(=O)c3ccco3)sc3c2CCC(C(C)(C)C)C3)c1 (stereo unspecified) | inactive: 15.6%
32 | Cc1ccccc1C(=O)Nc1ccc(C(=O)OCc2cc(=O)n3nc(C4CC4)sc3n2)cc1 | inactive: -8.38%
33 | CC(CNC(=O)CN1C(=O)COc2ccc(S(=O)(=O)N3CCCCC3)cc21)c1ccccc1 (stereo unspecified) | inactive: -16.2%
34 | COc1ccc2c(c1)c1c(c(=O)n(Cc3ccccc3)c(=O)n1Cc1ccc(C)cc1)n2C | inactive: -6.15%
35 | Cc1onc(-c2ccccc2Cl)c1C(=O)N[C@@H]1C(=O)N2[C@@H]1SC(C)(C)[C@@H]2C(=O)O | inactive: -2.7%
36 | Cc1ccc(-n2ncc(C(=O)NCCCN3CCc4ccccc4C3)c2C2CCN(C(=O)OC(C)(C)C)CC2)cc1C | inactive: -28.2%
37 | CC1CN(C(=O)Nc2ccc(C(=O)NCCc3ccccc3Cl)cc2)c2ccccc2S1 (stereo unspecified) | inactive: -26.7%
38 | CCOC(=O)C1CCN(C(=O)c2cc3ccc4ccc(C)[nH]c4c3n2)CC1 | inactive: -10.3%
39 | CCC(C)NC(=O)c1[nH]c2cc(OC)ccc2c1Sc1ccc(C)cc1 (stereo unspecified) | inactive: -19.1%
40 | CCOc1ccc(NC(=O)CC2C(=O)N(c3cccc(C)c3)C(=O)N2Cc2ccco2)cc1 (stereo unspecified) | inactive: -17.1%
41 | COc1ccc(-c2cc(C(F)(F)F)n3nc(C(=O)Nc4sc5c(c4C#N)CCC(C)C5)cc3n2)cc1OC (stereo unspecified) | inactive: -4.62%
42 | O=C(CSCc1cc(=O)c2ccccc2[nH]1)Nc1cccc(C(F)(F)F)c1 | inactive: -6.08%

Row | SMILES | activation
43 | CC(=O)c1ccc(N2CCN(S(=O)(=O)c3ccc4[nH]c5c(c4c3)CCCCC5)CC2)cc1 | inactive: -3.09%
44 | CC(=O)N1c2ccccc2C(=O)C1N1CCN(c2cc(Cl)ccc2C)CC1 (stereo unspecified) | inactive: -56.5%
45 | CCOC(=O)c1cccc(NC(=O)c2cnn(-c3ccccc3)c2-n2cccc2)c1 | inactive: -20.6%
46 | CCC1CN(C(=O)Nc2ccccc2C(F)(F)F)c2ccccc2S1 (stereo unspecified) | inactive: -30.2%
47 | Cc1ccc(CNC(=O)c2cc(S(=O)(=O)N3CCCCC3)cn2C)cc1 | inactive: 0.0735%
48 | Cc1ccc2nc(CN3CCN(C(=O)Nc4cccc(C)c4C)CC3)oc2c1 | inactive: 13.5%
49 | CCC1CN(C(=O)N2CCC(C(=O)N(C)Cc3ccccc3)CC2)c2ccccc2O1 (stereo unspecified) | inactive: -8.5%
50 | Cc1nc2c(-c3ccccc3)c(C)[nH]n2c(=O)c1Cc1ccc(C(C)C)cc1 | inactive: -19%
51 | CCS(=O)(=O)c1ncc(N(Cc2cccc(F)c2)Cc2ccco2)c(C(=O)Nc2ccccc2Cl)n1 | inactive: 2%
52 | COc1ccc(NC(=O)CN2C(=O)CC(c3ccco3)Sc3ccccc32)cc1OC (stereo unspecified) | inactive: -0.875%
53 | COC(=O)c1scc(-c2ccc(C)cc2)c1S(=O)(=O)Nc1c(C)cc(C)cc1C | inactive: -0.685%
54 | CCOc1ccccc1N(C)C(=O)NCc1noc2ccccc12 | inactive: -13.6%
55 | Cc1ccc(-n2nc(C)c3nc(CCC(=O)Nc4ccc(F)cc4)c(=O)n(C)c32)cc1 | inactive: -9.48%
56 | CN(CC[C@@H](Oc1ccc(C(F)(F)F)cc1)c1ccccc1)CC(=O)O | inactive: -1.62%
57 | CCn1cc(C(=O)NC(C)c2ccccc2)c(=O)c2cc(S(=O)(=O)N3CCc4ccccc4C3)ccc21 (stereo unspecified) | inactive: -14%
58 | CCOc1ccccc1NS(=O)(=O)c1ccc2oc(=O)c3ncn(C)c3c2c1 | inactive: 20.5%
59 | Cc1ccc(NC(=O)Cn2cc(S(=O)(=O)N3CCCC3)c(S(=O)(=O)N3CCCC3)c2)c(C)c1 | inactive: 3.93%
60 | CC(C)Nc1cccnc1N1CCN(C(=O)c2cc3cc(NS(C)(=O)=O)ccc3[nH]2)CC1 | inactive: 13.1%
61 | COc1ccc(C(=O)c2cn(CC(=O)Nc3ccc4c(c3)OCO4)c3ccc(OC)cc3c2=O)cc1 | inactive: 4.16%
62 | O=C(NCCc1ccc(Cl)cc1)c1cccn1-c1nnc(N2CCCC2)s1 | inactive: -21.6%
63 | CCc1ccccc1NC(=O)c1cc(S(=O)(=O)NC2CCCC2)ccc1F | inactive: -17.3%

Row | SMILES | activation
64 | CCCn1cc(S(=O)(=O)c2ccccc2)c(=O)c2cc(F)c(N3CCCC3)cc21 | inactive: -8.28%
65 | COc1ccc(C(=O)N2CCC(C(=O)Nc3ccccc3Cl)CC2)cc1 | inactive: -0.732%
66 | Cc1cccc(NC(=O)CSc2nc3c([nH]c4ccccc43)c(=O)n2-c2ccc(F)cc2)c1C | inactive: -14.5%
67 | Cc1cccc(OCC(=O)Nc2ccc3c(c2)N(C)C(=O)c2ccccc2S3)c1 | inactive: -15.7%
68 | Nc1ccc(S(=O)(=O)Nc2ccccc2)cc1 | inactive: -13.4%
69 | COc1ccc(-n2nc(C(=O)N3CCN(c4cccc(C)c4)C(C)C3)c3c4ccccc4n(C)c3c2=O)cc1 (stereo unspecified) | inactive: -4.32%
70 | Cc1ccc(C(=O)N/C(=C\c2cn(S(=O)(=O)N(C)C)c3ccccc23)C(=O)NCCCn2ccnc2)cc1 | inactive: 25.2%
71 | COc1ccc(NC(=O)c2ccco2)cc1NC(=O)COc1ccccc1Cl | active: 64.3%
72 | Cc1ccc(-n2c3c(cc(-c4nc(-c5ccc(Cl)cc5)cs4)c2=O)C(=O)CC(C)(C)C3)cc1 | inactive: 17.7%
73 | CCOC(=O)c1c(C)[nH]c(CCC(=O)Nc2cc(C)cc(C)c2)c1C | inactive: -20.2%
74 | O=C(Cn1nc(C(F)(F)F)c2c1CCCC2)Nc1ccc(Cl)cc1 | inactive: 43.5%
75 | COc1cc(OC)cc(C(=O)Nc2ccc(S(=O)(=O)Nc3onc(C)c3C)cc2)c1 | inactive: -9.28%
76 | COc1cccc(CNC(=O)CN2C(=O)CCn3nc(-c4cn(C)c5ccccc45)cc32)c1OC | inactive: 8.27%
77 | CCOC(=O)c1cccc(NC(=O)c2cc(-c3ccc(Cl)s3)nc3ccccc23)c1 | inactive: -9.36%
78 | CCc1ccc(N2C(=O)CSC23C(=O)N(Cc2cccc(F)c2)c2ccccc23)cc1 (stereo unspecified) | inactive: -24.3%
79 | CCN(CC)CCCNC(=O)c1cn(C)c2ccc(S(=O)(=O)N3CCOCC3)cc2c1=O | inactive: -0.411%
80 | COc1ccc(NC(=O)Cn2ncc3c([nH]c4ccccc43)c2=O)cc1Cl | inactive: -5.73%
81 | Cc1ccc(NC(=O)CSc2nc(C)cc(C)c2C(=O)Nc2cccc(C)c2)cc1 | inactive: -14.8%
